The source gives no read counts; variants with many changes may rest on few reads.

B1: LINE1-mini (parent)
chain: GGCAGAGCUCAACACAGCGUGGCAAAGUGGCUGUGGCUAGACUGCC

Variants of B1 are the subject of this data set. Nature of the data set: self-cleavage, relative activity (ratio to wild type); higher = more cleavage; in vitro, sequencing; the parent is a self-cleaving ribozyme.
On to GGCAGGGCUCAACACAGCGUGACAAAUUUGCUGUGGCUAGACUGCC, for which the self-cleavage is 0.19.

For GGCAGGGCUCAACACAGCGUGGCAAAUUGGCUGUGGCUUGACCGCC, the self-cleavage was determined as 0.06. As for GGCAGGGCUAAACACAGCGUGGCAAAGUGGCUGUGACUAGACUACC, the self-cleavage turned out to be 0.07. Consider GGCAGGGCUCAACACAGCGUGGCAAACUGACUGUGGCUAUACUGCC, for which the self-cleavage was found to be 0.06. Regarding GGCAGGGCUCAACAGAGCGUGUCAAAUGGGCUGUGGCUAGACUGCC, the self-cleavage came to 0. Turning to GGCAGGGCUCAACACAGCGUGGCAAAUUGGCUGUGGCUAGACUGUC, the self-cleavage worked out at 0.08.

In the case of GGCAGGGCUUAACACAGCGUGGCAAAGUGGGUGUGGCUAGACUGCU, the self-cleavage is 0.01. Consider GGCAGGGCUCAACACAGCGUGGCAAAGUGGGUGUGGCUAAACUGCC, for which the self-cleavage was 0.04. On to GGCAGGGCUCAAGACAGCGUGGCAAAGUGGCUUAGGCUAGACUGCC, for which the self-cleavage amounted to 0.03. Consider GGCAGGGCUUAACACAGCGUGGCAAAGUUGCUGUGGCUAGACUGCC, for which the self-cleavage was found to be 0.05.

GGCAGGGCUCAAUACAGCGUGGCAAAGUGGCUAUGGCCAUACUGCC: the self-cleavage was found to be 0.05.

For GGCAGGACACAAUACAGCGUGGCUAAGUGACUGUGGCUAUACUGCC, the self-cleavage was found to be 0.18. GGCAGGGCUCAACACAGAGAGGCAAAGUGGCUGUGGCUAGACUGCC: the self-cleavage was determined as 0.1. On to GGCAGGGCUCAACAGAGCGUAGCAAAGUGGCUGUGGCUCGAAGGCC, for which the self-cleavage is 0.04. For the variant GGCAGGUCUUAACACAGCGUGGCAAAGUGUCUUGGGCUAUACUGCC, the self-cleavage amounted to 0.02. Consider GGCAGGGCUCAACACAGCGUGGCAAAACGGCUGUGGCUAGACUUCC, for which the self-cleavage came to 0.04.

Turning to GGCAGGGCUCAACAAAGCGUAGCAAAGUGGCUAUGGCUAGAAUGUC, the self-cleavage was 0.02.

Take GGCAGGGCUCAACAGAGCCUGGCAAAGUGGCUGUGAAUAGACUGCC: the self-cleavage was 0.02. Turning to GGCAGGGCUCAACACAAUGUGGAAAAGUGGCUGUGGCUAGACUGCC, the self-cleavage was 0.03. With GGCAGGGCUCAACACAGUGUGGCAAAGUGGCUGUCGCUAAACUGCC, the self-cleavage was 0. In the case of GGCAGGGCUCAACACAGCGUGGCAAAGUGGUUGUGGCUAGGCUGCC, the self-cleavage was found to be 0.06.

Turning to GGCAGGGCUCAACAUAGCGUGCAAAAGGGGCUGUGGCUAGACUGCC, the self-cleavage is 0.09. With GGCAGGACUCAACACAGCGUGGCAAAGUGGCUGUGGCUAGUCUGCA, the self-cleavage turned out to be 0.07. GGCAGGGCUCAACAGAGCGUGACAAAGUGGCAGUGGCUAGACUGCC: the self-cleavage was 0.02. Consider GGCAGGACUCAACACAGCGUGGCAAAGUGGAUGUGGCAAGACUGCC, for which the self-cleavage worked out at 0.05.

As for GGCAGGGCUCAACACAGCGUGGCAAAGUGGCUGUGCCUAGGCUGCG, the self-cleavage worked out at 0.01. On to GGCAGGGCUCAACACAGCGUGGUAAAGUGGCUGUUGCUCGACUGCC, for which the self-cleavage worked out at 0.01. In the case of GGCAGGGUUCAACACAGCGUGGCAAAGUGGCUGUGGCCAGACUGGC, the self-cleavage was 0.04.

For the variant GGCAGGGCUCAACACAGCGUCGCAAAGUGGCUGUUGCUAGACUGCC, the self-cleavage is 0.05. For the variant GGCAGGGCUCAAAACAGGAUGGCAAAGUGGCUGUGGCUAAACUGCC, the self-cleavage amounted to 0.01. Take GGCAGGACUCAACACAGCGAGGCAAAGUGUCUGUGGCUAGACUGCC: the self-cleavage amounted to 0.16. For GGCAGGGCUCAACACAGCGUGGGAAAGUGGAUGUGGCUAGACUGCC the value was 0.01; for GGCAGGUAUCAACACAGCGAGGCAUAGUGGCUUUGGCUAGACUGCC, 0.22; for GGCAGGGCUCAACACAGCGUGGUAAAGUGGCUGUGGCCAGACUGCC, 0.18. For GGCAGGGCUGAACACAGCGUGGCAAAGUAGCUGUGGCUAGACUGCC the value was 0.03.

Turning to GGCAGGACACAACACAGCGUGGCCAAGUGGCUGUGGCUAGACUGCC, the self-cleavage was 0.05.

Regarding GGCAGGGUCCAACACAGCGUGGCAAAGUGGCUGUGGCUAGACUGCC, the self-cleavage was found to be 0.06.

Consider GGCAGGGCUCAACACAGCGUGGCAAAGUGGCUGUGGAUUGACUGCC, for which the self-cleavage was 0.15. On to GGCAGGGCUCAACACAGUGUGGCAAAGUAGCUGUGGCUAGACUGCC, for which the self-cleavage came to 0.18. With GGCAGGGCUCAAGACAGCGUGGCAAAGUGGCUGUGGCUAGACUACC, the self-cleavage turned out to be 0.09. As for GGCAGGGCUCAACACAGCGUGCCAAAGUGGCUGCGGCUAGACUGCC, the figure is 0.1; as for GGCAGGGUUCAACACAGCGUGGCAAAAUGGCUGUUAUUAGACUGCC, 0.19; as for GGCAGGGCUUAACACAGCGUGGCAAAGUUGCGGUGGCUAGACUGCC, 0.01.

For GGCAGGGCUCAACACACCGUGUCAAAGUGGCUGUGCCUAGACUCCC, the self-cleavage came to 0.02. Regarding GGCAGGGCUCAACACAGCGUGGCAAAGUGGCUGUGGCUAGAGUGAC, the self-cleavage was found to be 0. GGCAGGGCUCAACACAGCGUGGCAAAGUGUCUGUGGCUAGACUGGC: the self-cleavage stood at 0.04. For GGCAGGGCUCAACACAGCGUGACAAGGUGCCUGUGGCUAGACUGCA the value was 0.08. With GGCAGGUCUCAUCACAGCGUGGCAAGGUGGCUGAGUCUACACUGCC, the self-cleavage worked out at 0.04. As for GGCAGGGCUCAACACAGCAUGGCAAAGUGGCUGUGGCUAGAAUGUC, the self-cleavage turned out to be 0.12. Consider GGCAGGCCUCAACACAGCGUGGCUAAGUGGCUGAGGCUAGACUGCC, for which the self-cleavage was 0.01. For GGCAGGGUACAACACAGCGUGUCAAAGUGGCUUUGGCUAGACUUCC the value was 0.07; for GGCAGGUCUCAUCACAGCAUGGCAAGGUGGCCGUUGCUAGACUUCC, 0.08; for GGCAGGGCUCAACACAACCUGUCAAAGUGGCUGUUGCUAGACUGCC, 0.07. Regarding GGCAGGGCUCAACACAGCGUAGCAACGUGUCUGUGGAUAUACUGCC, the self-cleavage is 0.33.

GGCAGGUCUCAACACAGCGUGGCAAAGUGGCUCUGGCUACACUGCC: the self-cleavage turned out to be 0.12. For the variant GGCAGGGCUCAACACAGCGUGGGAACGUGGCUGUGGUUAGACUGCC, the self-cleavage worked out at 0.02.

The values above are taken from the RNAGym collection of RNA variant scans (doi:10.7554/elife.90254).
